# According to article PMC4336329 (PLoS ONE, 2015):
# Screen size: about 310,000 compounds; about 14,000 (4.5%) showed an effect of 50% or more. The effect is printed as a negative number. Some of the results follow.
# Target: human ether-à-go-go-related gene (hERG) potassium channel (human, UniProt Q12809)
# Assay: primary screen, population patch clamp on CHO cells stably expressing hERG
# 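Note: peak tail current of the secondary pulse compared with the same well before compound.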
# human ether-à-go-go-related gene (hERG) potassium channel, sequence (Q12809 whole entry, looked up): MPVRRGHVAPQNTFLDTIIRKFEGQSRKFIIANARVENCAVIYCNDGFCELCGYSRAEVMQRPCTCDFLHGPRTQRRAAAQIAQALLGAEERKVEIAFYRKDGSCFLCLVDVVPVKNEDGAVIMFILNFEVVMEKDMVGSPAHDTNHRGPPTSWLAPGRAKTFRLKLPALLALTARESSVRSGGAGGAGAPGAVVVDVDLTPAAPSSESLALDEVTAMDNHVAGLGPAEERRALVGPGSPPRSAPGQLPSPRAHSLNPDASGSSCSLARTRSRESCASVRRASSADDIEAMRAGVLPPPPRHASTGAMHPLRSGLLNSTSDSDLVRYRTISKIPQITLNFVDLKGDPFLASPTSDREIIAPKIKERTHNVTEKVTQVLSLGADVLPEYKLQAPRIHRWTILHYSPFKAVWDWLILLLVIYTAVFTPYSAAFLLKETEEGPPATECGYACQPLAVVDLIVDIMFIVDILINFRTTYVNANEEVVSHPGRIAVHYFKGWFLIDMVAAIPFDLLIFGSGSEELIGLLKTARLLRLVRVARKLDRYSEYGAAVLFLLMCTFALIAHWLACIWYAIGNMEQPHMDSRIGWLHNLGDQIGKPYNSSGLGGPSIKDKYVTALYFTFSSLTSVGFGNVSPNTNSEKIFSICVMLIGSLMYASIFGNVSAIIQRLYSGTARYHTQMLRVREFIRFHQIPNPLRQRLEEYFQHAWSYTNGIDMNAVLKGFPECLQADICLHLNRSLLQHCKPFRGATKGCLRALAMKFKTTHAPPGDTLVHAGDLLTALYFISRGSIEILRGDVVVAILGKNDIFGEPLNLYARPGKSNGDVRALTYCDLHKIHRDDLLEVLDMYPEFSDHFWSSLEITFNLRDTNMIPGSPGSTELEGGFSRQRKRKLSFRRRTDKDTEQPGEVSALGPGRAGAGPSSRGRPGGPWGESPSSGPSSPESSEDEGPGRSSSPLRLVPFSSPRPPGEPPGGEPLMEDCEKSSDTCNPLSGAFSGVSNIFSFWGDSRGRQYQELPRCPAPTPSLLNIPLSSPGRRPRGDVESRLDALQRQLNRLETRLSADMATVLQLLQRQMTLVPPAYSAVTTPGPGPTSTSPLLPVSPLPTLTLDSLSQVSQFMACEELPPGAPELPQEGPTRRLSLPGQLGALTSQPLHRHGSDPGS
row,Compound,"hERG current change (%, negative = inhibition) at 10uM [%]"
1,O=C(Nc1nccs1)c1cccc(N2C(=O)c3cccc4c([N+](=O)[O-])ccc(c34)C2=O)c1,-1.83
2,CCCC(c1nnnn1Cc1ccco1)N1CCN(C2CCCC2)CC1 (stereo not shown),-31
3,Nc1ccc2oc(=O)c(-c3ccccc3)cc2c1,6.08
4,COc1ccc(CN2CCCC(C(=O)Nc3cccc(-n4cnnn4)c3)C2)c(C)c1C (stereo not shown),-62.7
5,COc1cc(OC)c(C(=O)N2CCN(c3ccccn3)CC2)cc1OC,18.7
6,COc1ccc2c(c1)OC13CCN(C)CC1C2C(C(=O)c1ccc(F)cc1)C(=O)N3 (stereo not shown),-34
7,CCC1(C)Cc2c(sc3nc(SC)[nH]c(=S)c23)CO1 (stereo not shown),12.6
8,COc1cccc(-n2c(SCC(=O)OC(C)C)nnc2-c2cccnc2)c1,-0.33
9,COc1cccc(S(=O)(=O)Nc2ccc(C(=O)Nc3ccncc3)cc2)c1,2.7
10,O=Cc1ccc(C(=O)O)cc1,14
11,Cc1cccc2cc(CN(Cc3ccccc3)C(=S)NCCCN(C)C)c(=O)[nH]c12,-38
12,COc1ccc(/C=N/OCC(=O)N2CCCC2)c(OC)c1,2.87
13,CCC(C)OC(=O)C1=C(C)OC23OC(N)=C(C#N)C12C(=O)c1ccccc13 (stereo not shown),-22.9
14,CCc1nnc(NC(=O)c2ccc(COc3ccccc3)o2)s1,-3.1
15,O=C(O)CCc1ccc(-c2ccc(Cl)cc2)o1,-11.7
16,CCN(CC)C(=O)Oc1cc(=O)n(C)c2ccccc12,-2.13
17,O=C(CSc1nnc2ccccn12)NNC(=O)c1ccc([N+](=O)[O-])cc1,-3.39
18,Cc1onc(-c2c(Cl)cccc2Cl)c1C(=O)N=C(N)N1CC(C)OC(C)C1 (stereo not shown),13.2
19,COc1cc(NC(=O)C2CCN(c3cnccn3)CC2)cc(OC)c1OC,19.5
20,COCCn1c(SCC(=O)Nc2cc(C)on2)nnc1-c1ccccc1,17.7
21,CCOc1cc(C2NC(=O)NC(O)(C(F)(F)F)C2C(=O)c2ccc(Cl)cc2)ccc1O (stereo not shown),0.624
22,O=S(=O)(Nc1ccccc1N1CCCCC1)c1cccs1,1.55

row,Compound,"hERG current change (%, negative = inhibition) at 10uM [%]"
1,CCS(=O)(=O)N1CCC(C(=O)c2ccc(Cl)cc2)CC1,-47.3
2,CCOc1ccc(S(=O)(=O)N2CCC(C(=O)OCc3cccc(OC)c3OC)CC2)cc1,-25.1
3,Cc1c(/C=C/C(=O)c2ccc(O)cc2)cnn1C,-3.92
4,Cc1ccc(NC(=O)CN(C)CC(=O)Nc2ccccc2C#N)cc1,-11.3
5,C=CCNC(=O)COC(=O)COc1ccc(Cl)cc1,7.19
6,Cc1sc2nc(C3CC3)nc(N3CCN(C(=O)c4ccc(Cl)cc4)CC3)c2c1C.Cl,-57.1
7,CCOC(=O)N1CCN(CCC(=O)Nc2ccc(C)cc2)CC1,4.65
8,O=C(NC1CCSc2ccccc21)c1ccccc1Cl (stereo not shown),10.7
9,C=CCn1c(SCC(C)=O)nnc1-c1cc(-c2ccccc2)sc1N,-33.3
10,COc1ccc(CCNC(=O)/C=C/c2ccco2)cc1,-3.43
11,Cn1nccc1C(=O)NC(=S)Nc1cc(Cl)cc(Cl)c1,4.84
12,CC(OC(=O)CCCN=C1NS(=O)(=O)c2ccccc21)C(=O)Nc1ccccc1F (stereo not shown),-4.71
13,CCOc1cc(C(=S)N2CCOCC2)ccc1OS(=O)(=O)c1ccc(Br)cc1,-1.54
14,CON/C=C(\C=Nc1ccc(Cl)cc1)c1ncc(C(F)(F)F)cc1Cl,1.78
15,O=C(NC1CCCC1)C1CCN(C(=O)c2cccc(Cl)c2)CC1,-6.41
16,O=C(Nc1ccc(F)cc1F)NC1CCCc2ccccc21 (stereo not shown),-25.9
17,Cc1ccc2nc(NC(=O)C(NS(=O)(=O)c3cccc4nsnc34)C(C)C)sc2c1 (stereo not shown),-3.95
18,COc1cc(OC)cc(C(=O)Nc2ccc(C(=O)NCC3CCCO3)cc2)c1 (stereo not shown),5.04
19,COc1cccc(NC(=O)C(c2ccccc2)N2CCN(CC(=O)N3CCOCC3)CC2)c1 (stereo not shown),-36.8
20,CC1Cc2ccccc2N1C(=O)C1CCN(S(=O)(=O)Cc2ccccc2)CC1 (stereo not shown),6.61
21,C[C@H](O)CC1=C[C@H](O)[C@@H](C)OC1=O,-6.25
22,N#Cc1c(N2CCOCC2)nsc1-c1ccccc1,6.68

row,Compound,"hERG current change (%, negative = inhibition) at 10uM [%]"
1,CC(C)(C)c1ccc(/C=N/Nc2nncn2N)cc1,-21.5
2,Cc1c(Cc2ccccc2)c(=O)oc2c(C)c(OC(C)C(=O)N[C@@H](Cc3ccccc3)C(=O)O)ccc12 (stereo partly shown),4.54
3,CC(C(=O)NC1=NCCS1)N1C(=O)c2ccccc2C1=O (stereo not shown),4.04
4,NC(=O)C1(N2CCCCC2)CCN(S(=O)(=O)c2ccccc2)CC1,-22.2
5,O=S(=O)(NC1c2cccc3cccc(c23)C1Sc1ncccn1)c1ccccc1 (stereo not shown),29.1
6,O=C(c1ccc(S(=O)(=O)N2CCCC2)cc1)N1CCCCCC1,-1.88
7,N#Cc1ccccc1Cn1cc(C(=O)c2cccs2)c2ccccc21,11.9
8,CCSc1nnc(-c2cccnc2)n1Cc1ccco1,-7.73
9,CCc1cc2c(C)ccc(C)c2nc1SCC(=O)Nc1cc(C)on1,6.86
10,COc1ccc(NC(=O)C2CCN(C(=O)Nc3ccccc3)CC2)cc1S(=O)(=O)N(C)C,12.5
11,O=C(COC(=O)Cc1n[nH]c(=O)c2ccccc12)NNC(=O)c1ccccc1,5.8
12,CC(=O)/C(=N/Nc1ccc(C)cc1)Sc1nnc(CCc2ccccc2)n1-c1ccccc1,-10.7
13,COc1cccc(-c2cc(CC3(O)CCN(CCCc4ccccc4)CC3)on2)c1,-89.1
14,O=C(CN1C(=O)c2ccccc2S1(=O)=O)Nc1ccc(S(=O)(=O)N2CCCCC2)cc1,0.41
15,CN(C)C(=S)Nc1ccc(Br)cc1Cl,9.09
16,C#CCOCCOCCOCCNc1nc(N2CCN(C(=O)[C@H]([C@@H](C)CC)n3cc([C@@H](N)CC(C)C)nn3)CC2)nc(N2CCN(C(=O)[C@H](CCCCN)n3cc([C@@H](N)CO)nn3)CC2)n1.Cl,10.1
17,O=S(=O)(Nc1nnc(C2CCCCC2)s1)c1ccc(F)cc1,-42
18,O=C(NCCNC(=O)c1ccccn1)c1ccccc1,11.7
19,COc1cc(NC(=O)Cc2c(C(=O)O)[nH]c3ccccc23)cc(OC)c1OC,-4.08
20,COc1ccc(-c2nnc(N3CCCCC3)c3ccccc23)cc1,-47.3
21,O=C(Nc1ccc(Cl)cc1C(=O)c1ccccc1)c1ccccc1,3.76
22,Cc1ccc(-c2c[n+](CC(=O)Nc3ccccc3C)c3n2CCC3)cc1.[Cl-],-5.42

row,Compound,"hERG current change (%, negative = inhibition) at 10uM [%]"
1,Cc1cc(/C=C2/SC(=O)N(CC(=O)N3CCCC3)C2=O)c(C)n1C,-5.16
2,O=C1C2CCCCN2C(=O)N1CCCCN1CCN(c2ccc(F)cc2)CC1 (stereo not shown),-44
3,O=C(CC(=O)c1ccccc1)Nc1cccnc1,15.7
4,CCc1nnc(NC(=O)CN2CCN(c3ccccc3F)CC2)s1.Cl,-12.9
5,CN(C)c1ccc(/C=N/N=C(N)N)cc1[N+](=O)[O-],-13
6,COc1ccc(/C=C/C(=O)Nc2c(C(=O)O)[nH]c3ccccc23)cc1OC,11.9
7,COc1ccc(N(CC(=O)NCc2cccs2)S(=O)(=O)c2cccnc2)cc1,-8.69
8,O=C(/C=C/c1c(Cl)nc2ccccn12)N1CCN(c2ccccc2F)CC1,-5.92
9,CC(=O)Oc1ccc(-c2nc3c(C)cccc3c(=O)o2)cc1,19
10,COC(=O)c1ccc(COc2ncnc3c(Cl)cc(Cl)cc23)o1,-6.83
11,CC(C)NC(=O)CSCc1c(Cl)cccc1Cl,-10.5
12,COc1ccccc1NC(C)C(=O)Nc1ccc(C(C)=O)cc1 (stereo not shown),-7.13
13,COc1cccc(Nc2nc(N)c([N+](=O)[O-])c(NCc3ccccc3)n2)c1,6.25
14,COCCN(C(=O)COC(=O)CC(C)c1ccccc1)c1c(N)n(Cc2ccccc2)c(=O)[nH]c1=O (stereo not shown),11.7
15,Cn1c(N)c(N=O)c(=O)n(C)c1=O,12.3
16,COc1ccc2nc(C)c3c(c2c1)OC(C)C3 (stereo not shown),-34.1
17,CCc1cc(CN2CCOCC2)c(NC(=O)c2ccccc2)s1,-25.9
18,CCc1cc(=O)oc2c(C)c(OC(C)C(=O)NCCCn3ccnc3)ccc12 (stereo not shown),-20.8
19,Cc1ccc(NC(=O)CCNS(=O)(=O)c2ccc3[nH]c(=O)oc3c2)cc1,7.37
20,Cc1ccc(C(C)C)c(OCC(=O)Nn2c(C)nc3ccccc3c2=O)c1,-29.5
21,CC1(C)c2ccccc2N2CC(=O)NC21/C=C/c1ccco1 (stereo not shown),2.9
22,Cc1c([N+](=O)[O-])cc(C(=O)Nc2ccc3ncccc3c2)cc1[N+](=O)[O-],17
